Results: PubChem BioAssay AID485294 (National Center for Advancing Translational Sciences (NCATS), 2010)
Hit rate of the full screen: of about 370,000 compounds, about 150 (0.041%) were called active. Inconclusive results, whose numbers are uncertain, are shown with a selection of clear calls. Calls come from the whole dose curve; as a rule, active = well fitted inhibition curve with a large enough effect; inconclusive = small, poorly fitted or top-dose-only effect; inactive = flat fitted curve, though single readings scatter. No potency is given beside an inconclusive call; the fits are too rough.
Note: nearly all actives have a fitted effect of over 25% in size.
Potency is the fitted concentration of half-maximal effect; tags give direction and shape of the fitted curve.

These compounds were tested against Beta-lactamase (Escherichia coli (strain K12)) (UniProt P00811) (assay: qHTS Inhibitors of AmpC Beta-Lactamase (assay with detergent)). Settings: AmpC hydrolysis of nitrocefin, absorbance 480 nm, 0.01% Triton; series mostly up to 114 µM.
Sequence of UniProt P00811 (P00811 whole entry, looked up): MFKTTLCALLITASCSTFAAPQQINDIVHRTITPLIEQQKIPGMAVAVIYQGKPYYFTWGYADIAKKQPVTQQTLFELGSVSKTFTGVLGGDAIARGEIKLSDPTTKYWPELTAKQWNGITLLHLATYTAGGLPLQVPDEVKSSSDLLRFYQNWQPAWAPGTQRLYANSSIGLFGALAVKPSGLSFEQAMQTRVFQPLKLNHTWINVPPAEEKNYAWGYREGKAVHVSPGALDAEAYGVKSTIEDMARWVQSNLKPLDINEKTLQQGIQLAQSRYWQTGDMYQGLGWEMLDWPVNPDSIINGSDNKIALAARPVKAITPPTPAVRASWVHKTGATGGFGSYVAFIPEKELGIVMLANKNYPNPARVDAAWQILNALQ
How it was run: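 AmpC (5.3 nM in the dispensed reagent) in 20 mM phosphate pH 7.0 with 0.01% (detergent screen) or 0.0001% Triton X-100 was preincubated with compounds for 15 min at room temperature. Nitrocefin was then added from an 800 uM solution, and hydrolysis was followed at 480 nm.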
For `CC(C)NC(=O)C1c2ccccc2Oc2ccccc21`, the Potency was inconclusive [inhibitor, full curve, poor fit]. `COCC(=O)N(Cc1cc2ccc(C)cc2[nH]c1=O)c1ccc(OC)cc1` was tested, and the Potency was inconclusive [inhibitor, full curve, poor fit]. With `Cc1ccc(NS(=O)(=O)c2cccc(C(=O)NCC(c3ccco3)N3CCCCC3)c2)cc1` (centres undefined) the Potency was “inactive”. With `O=C(NCc1ccccc1Cl)c1cnn2cccnc12` the Potency was inconclusive [inhibitor, full curve, poor fit]. With `c1ccc(-c2noc(CN3CCN(C(c4ccccc4)c4ccccc4)CC3)n2)cc1` the Potency was inconclusive [inhibitor, single point]. For `O=C(NCCc1ccc(Cl)cc1)c1nnc(Cc2ccc(Cl)cc2)o1`, the Potency was inconclusive [inhibitor, partial curve, poor fit]. With `COCCOC(=O)C1=C(C)N(Cc2ccccc2)C(=O)NC1c1ccc(OC)cc1` (centres undefined) the Potency was inconclusive [inhibitor, full curve, poor fit]. In the case of `Cc1ccc(NC(=O)CCSc2ccccn2)cc1`, the Potency is reported as “inactive”. In the case of `CCn1nc(C(=O)Nc2ccc(Cl)c(S(=O)(=O)N3CCOCC3)c2)c2ccccc2c1=O`, the Potency is reported as inconclusive [inhibitor, partial curve, poor fit]. `CN(CCO)C(=O)c1ccc(-c2nn(C)c(=O)c3ccccc23)cc1` was tested, and the Potency was “inactive”. For `FC(F)(F)c1ccc(Cl)c(-n2c(-c3cc(-c4ccco4)[nH]n3)n[nH]c2=S)c1`, the Potency was “inactive”. `CCCCN=Cc1c(C)[nH]n(-c2ccccc2)c1=S` was tested, and the Potency was “inactive”. With `CCc1sc(C(=O)NCCc2ccc(S(N)(=O)=O)cc2)cc1C` the Potency was inconclusive [inhibitor, full curve, poor fit]. With `CCOC(=O)N1CCC(Nc2ncnc3c2cnn3-c2ccccc2)CC1` the Potency was inconclusive [inhibitor, partial curve, poor fit]. In the case of `Cc1nn(CC(=O)Nc2ccc3c(c2)nc(CN2CCCCC2)n3C)c(=O)c2ccccc12`, the Potency is reported as inconclusive [inhibitor, full curve, poor fit]. `Cc1cccc(CSc2ncnc3ccccc23)c1` was tested, and the Potency was “inactive”. With `COc1ccc(NC(=O)Nc2ccc(C(=O)N3CCOCC3)cc2)cc1OC` the Potency was inconclusive [inhibitor, full curve, poor fit]. In the case of `COC(=O)C1C(=O)c2c([nH]c(C(=O)OCC3CCCO3)c2C)CC1C` (centres undefined), the Potency is reported as inconclusive [inhibitor, partial curve, poor fit]. For `CSCCC(NC(=O)c1ccco1)C(=O)NCC1CCCO1` (centres undefined), the Potency was “inactive”. `CC(C)(C)OC(=O)C1C(=O)CC(C)(O)C(C(=O)OC(C)(C)C)C1c1ccco1` (centres undefined) was tested, and the Potency was inconclusive [inhibitor, full curve, poor fit]. In the case of `CC(=O)Nc1nn(C)c2nc3cc(C)ccc3cc12`, the Potency is reported as inconclusive [inhibitor, full curve]. `O=c1cc(N2CCN(Cc3ccccc3)CC2)[nH]c(=O)n1-c1ccc(Br)cc1` was tested, and the Potency was inconclusive [inhibitor, full curve, poor fit]. For `O=C(Nc1cccc(S(=O)(=O)C(F)F)c1)c1ccc(S(=O)(=O)N2CCCCC2)cc1`, the Potency was inconclusive [inhibitor, full curve, poor fit]. In the case of `Cc1cc(C(F)(F)F)nn1CC(=O)NNC(=S)NCC(C)C`, the Potency is reported as inconclusive [inhibitor, full curve, poor fit]. `O=C(NCCc1ccccc1)c1cccs1` was tested, and the Potency was inconclusive [inhibitor, full curve, poor fit]. In the case of `Nc1nc(SCc2c(F)cccc2Cl)[nH]c(=O)c1-c1ccccc1`, the Potency is reported as inconclusive [inhibitor, single point]. For `Cc1ccc(NC(=O)CSc2nc(N)c3c4c(sc3n2)CSC(C)(C)C4)cc1`, the Potency was inconclusive [inhibitor, full curve, poor fit]. `O=c1c2c(-c3ccco3)csc2nc(SCc2cn3cccnc3n2)n1-c1ccccc1` was tested, and the Potency was inconclusive [inhibitor, full curve, poor fit]. For `Cc1ccc(C2(O)CN(c3ccccc3)C3=[N+]2CCS3)cc1` (centres undefined), the Potency was inconclusive [inhibitor, full curve, poor fit]. For `O=C(COC(=O)c1ccc(F)cc1F)Nc1cc(S(=O)(=O)N2CCOCC2)ccc1Cl`, the Potency was inconclusive [inhibitor, partial curve, poor fit]. For `NC(=O)c1ccsc1NC(=O)C1CCCCC1`, the Potency was inconclusive [inhibitor, full curve]. With `COc1ccc(C)cc1S(=O)(=O)N(C)CC(=O)N1CCCC1` the Potency was “inactive”. With `Cc1cccc(-c2nc3ccccc3c(=O)n2NC(=O)c2ccc([N+](=O)[O-])c(C)c2)c1` the Potency was inconclusive [inhibitor, full curve, poor fit]. For `COc1ccc2c(c1)CC1(CN2C)C(=O)NC(=O)N(c2ccc(C)cc2)C1=O` (centres undefined), the Potency was inconclusive [inhibitor, partial curve, poor fit]. With `O=C(Nc1nc(-c2ccc(Cl)cc2)cs1)C1CCCO1` (centres undefined) the Potency was “inactive”. With `CC(C)NC(=O)CCS(=O)(=O)c1ccc(Br)s1` the Potency was “inactive”. For `Cc1ccc2ccc(S(=O)(=O)NCc3ccccn3)cc2c1`, the Potency was inconclusive [inhibitor, full curve, poor fit]. With `Cc1c(-c2ccc(Cl)cc2)oc(=O)c2c(N)n(-c3ccccc3)nc12` the Potency was “inactive”. For `O=C(O)c1ccc(CSc2nnc(COc3ccc(Cl)cc3Cl)o2)cc1`, the Potency was inconclusive [inhibitor, full curve, poor fit]. In the case of `CC(C)(O)C(=O)N/N=C\c1ccc(OC/C=C/c2ccccc2)cc1`, the Potency is reported as inconclusive [inhibitor, full curve]. With `COC(=O)C1=C(C)N(Cc2ccco2)C(=O)N[C@@H]1c1ccccc1` the Potency was inconclusive [inhibitor, full curve, poor fit]. For `CC(C)Cc1nnc(NC(=O)CCC(=O)N2CC(C)CC(C)C2)s1` (centres undefined), the Potency was inconclusive [inhibitor, full curve]. For `Cc1ccc2cccc(O)c2[n+]1[O-]`, the Potency was inconclusive [inhibitor, partial curve, poor fit]. For `CSc1nsc(SCc2ccc(Cl)cc2)n1`, the Potency was inconclusive [inhibitor, full curve, poor fit]. With `Cc1ccc(C)c(NC(=S)Nc2cccnc2)c1` the Potency was “inactive”. With `O=C(CN1CCN(Cc2ccc(F)cc2Cl)C1=O)NCCc1ccc(Cl)cc1` the Potency was inconclusive [inhibitor, partial curve, poor fit]. `CCC(=O)Nc1ccc(-c2nc3ccccc3c(=O)o2)cc1` was tested, and the Potency was inconclusive [inhibitor, full curve, poor fit]. In the case of `COc1ccc(-c2nnc(CSc3nnc(-c4ccncc4)n3C3CCCCC3)o2)cc1OC`, the Potency is reported as “inactive”. With `CC(C)c1nnc(NC(=O)c2cnccn2)s1` the Potency was inconclusive [inhibitor, full curve]. With `Cc1ccc(N2C(=O)c3ccccc3NC2(C(=O)O)c2ccccc2)cc1Cl` (centres undefined) the Potency was “inactive”. `c1nc(NC2CCCC2)c2[nH]cnc2n1` was tested, and the Potency was inconclusive [inhibitor, full curve, poor fit]. With `CC(=O)c1cccc(NC(=O)C(C)OC(=O)Cc2c[nH]c3ccccc23)c1` (centres undefined) the Potency was inconclusive [inhibitor, full curve, poor fit]. For `Cc1ccc(-c2csc3nc4cc(C(N)=O)ccc4c(=O)n23)cc1`, the Potency was “inactive”. In the case of `COc1cc(C(=O)Nc2ccc(Br)cc2C(=O)c2cc(OC)c(OC)c(OC)c2)cc(OC)c1OC`, the Potency is reported as inconclusive [inhibitor, full curve]. `Cc1ccc(NC(=O)CSc2nc3c(cc2C#N)C(=O)CCC3)cc1S(=O)(=O)N(C)C` was tested, and the Potency was inconclusive [inhibitor, full curve]. `CC(C)n1c(SCC(=O)NCc2ccco2)nnc1C1CC1` was tested, and the Potency was “inactive”. `CNc1nc(C)c(C(=O)OCC(=O)OC)s1` was tested, and the Potency was inconclusive [inhibitor, partial curve]. For `CCOC(=O)c1c(C)n(Cc2ccc3c(c2)OCO3)c2ccc(O)cc12`, the Potency was “inactive”. In the case of `CCOC(=O)C1CCN(C(=O)CSc2n[nH]c(=O)[nH]c2=O)CC1`, the Potency is reported as inconclusive [inhibitor, full curve]. For `Cc1cc(NC(=S)Nc2cccnc2)ccc1Br`, the Potency was “inactive”. `CCOc1ccc(/C=C/C(O)=C2/C(=O)N(C)C3(C)CC2c2ccccc2O3)cc1OC` (centres undefined) was tested, and the Potency was “inactive”. In the case of `Cc1ccc(S(=O)(=O)c2c(Nc3ccc(C)c(C)c3)sc(C(=O)c3ccc4c(c3)OCO4)c2N)cc1`, the Potency is reported as inconclusive [inhibitor, single point]. `Cc1ccc(NS(=O)(=O)c2ccccc2F)cc1S(=O)(=O)N1CCCCC1` was tested, and the Potency was “inactive”. For `COc1ccc(-n2c(C)cc(/C=C(\C#N)C(=O)NCc3ccco3)c2C)cc1`, the Potency was “inactive”. In the case of `Cc1ccccc1CNC(=O)CCn1nc(C)c2c(C)n(-c3ccccc3)nc2c1=O`, the Potency is reported as “inactive”. For `COc1cc(CNCCSc2nnnn2C)ccc1OCc1ccccc1C`, the Potency was “inactive”. For `Cc1c(CN(C)C(=O)c2cc(-c3ccccc3)nc3ccc(Br)cc23)cnn1C`, the Potency was “inactive”. With `COc1ccc(C(=O)N/N=C(/C)c2cccc(NC(=O)c3ccncc3)c2)cc1OC` the Potency was “inactive”. `Cc1ccc(CNC(=O)CCCn2c(=O)c3ccccc3n(CC(=O)NC3CCCC3)c2=O)cc1` was tested, and the Potency was inconclusive [inhibitor, full curve, poor fit].
